Source: PubChem BioAssay AID602332 (National Center for Advancing Translational Sciences (NCATS), 2012)
The campaign covered roughly 420,000 compounds. About 75 (0.02%) were called active. The inconclusive results got no clear call from the source; some entries with a clear call stand among them for comparison. Calls follow the shape of the dose curve; as a rule, active = well fitted activation curve with a large enough effect; inconclusive = small, poorly fitted or top-dose-only effect; inactive = no such curve, though single readings can be large or run the other way. A potency beside an inconclusive call is a rough fit, not a confirmed value.

Test: qHTS for Inducers of the Endoplasmic Reticulum Stress Response (ERSR) in Human Glioma: qHTS; also: nearly all actives have a fitted effect of over 35% in size; as to activation: % of control where 0% means no effect
Details: U87-MG GRP78 promoter luciferase reporter, 16 h; activation: stronger effect = higher value
In short: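 Stably transfected U87-MG glioma cells carrying a GRP78-based luciferase sensor; 16 h compound incubation. Luminescence end-point read 10 min after Bright-Glo addition at room temperature.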
Potency is read from the fitted curve at half-maximal effect; tags tell the direction and shape of the fitted curve.

activation, inconclusive:
CC(=O)N[C@H]1C(O[C@@H]2O[C@H](C[C@@H](O)[C@H]3O[C@@H](N4CCC(=O)NC4=O)[C@H](O)[C@@H]3O)[C@H](O)[C@H](O)[C@H]2NC(=O)/C=C/CCCCCCCCCCC(C)C)OC(CO)[C@@H](O)[C@@H]1O (stereo partly specified) 40.2% [activator]

activation, inactive:
c1ccc(-c2cccc(N3CCCC4(CCNCC4)C3)c2)cc1 -2.24%
C=CCc1ccc(OCCCOc2ccc(C(=O)O)cc2)c(OC)c1 6.68%
Cc1cc(C(=O)Nc2cccc(NC(=O)c3ccco3)c2)ccc1[N+](=O)[O-] 0.315%
COc1ccccc1CNC(=O)Cn1cc2c(n1)-c1c(oc(C(=O)N3CCOCC3)c1C)CC2 -3.21%
CC[N+](C)(C)c1ccc(/C=C/c2ccc3ccccc3n2)cc1 -10.2%
COc1ccccc1CCC(=O)OCC(=O)Nc1ccc(C)c(S(=O)(=O)N2CCCCC2)c1 -4.42%
Cc1c(C=O)c2ccccn2c1C(=O)c1cccs1 -2.72%
COc1ccc(S[C@@H]2C[C@@H](C(=O)Nc3ccc4nccnc4c3)N(C3Cc4ccccc4C3)C2)cc1 -1.48%
CC(CC(=O)N1CCN(c2ccccc2F)CC1)c1ccccc1 (stereo unspecified) -1.38%
O=C(c1ccc(Cl)cc1)C1CCCN(Cc2cnn(-c3ccccc3)c2)C1 (stereo unspecified) -5.35%

Potency, inconclusive:
O=C(NCc1cccnc1)c1ccc([N+](=O)[O-])o1 11.2 µM [activator, single point]
CCOC(=O)COc1ccc(Br)cc1/C=C/c1[nH]c(=O)[nH]c(=O)c1[N+](=O)[O-] 12.6 µM [activator, single point]
O=C(CCNS(=O)(=O)c1ccc2c(c1)CCN2C(=O)C1CC1)N1CCN(c2cccc(Cl)c2)CC1 28.2 µM [activator, single point]
CCOc1ccc2nc(NC(=O)c3cccc(-c4cc5ccccc5oc4=O)c3)sc2c1 39.8 µM [activator, partial curve, poor fit]
Cn1cc(C=C2C(=O)Nc3cccnc32)c2ccccc21 11.2 µM [activator, partial curve, poor fit]
O=C(O)CSc1ncnc2sc(-c3ccccc3)cc12 11.2 µM [activator, single point]
COC(=O)c1ccc(/C=C/C(=O)c2ccc(OC)c(OC)c2)cc1 14.1 µM [activator, single point]
COc1cc(-c2nnc(NC(=O)CCS(=O)(=O)c3ccccc3)o2)cc(OC)c1OC 28.2 µM [activator, single point]
O=C(c1ccco1)N1CCN(C(=O)c2cn(-c3ccccc3)nc2-c2ccccc2)CC1 28.2 µM [activator, single point]
CC(C)(C)Nc1nc(NN)nc(NC(C)(C)C)n1 50.1 µM [activator, single point]
CCn1c(SCC(=O)c2ccccc2)nnc1-c1cnccn1 10 µM [activator, partial curve, poor fit]
O=C(NCCN1CCOCC1)NC1(C(F)(F)F)Oc2ccccc2O1 39.8 µM [activator, partial curve, poor fit]
O=c1c2ccccc2nc2n1CCc1c-2[nH]c2ccccc12 0.261 µM [activator, full curve, poor fit]
Oc1ccc(CNc2ccccc2O)cc1 10 µM [activator, single point]
O=C(O)CCCCC1CCSS1 (stereo unspecified) 25.1 µM [activator, single point]
CCOC(=O)COc1ccc(/C=C2/SC(=Nc3ccccc3)N(Cc3cccnc3)C2=O)cc1OC 28.2 µM [activator, partial curve, poor fit]
Oc1cc2c(c(Cl)c1O)CCNCC2c1ccccc1 (stereo unspecified) 26.1 µM [activator, partial curve, poor fit]
CN(C)S(=O)(=O)c1ccc(N2CCCC2)c(C(=O)Nc2nc3ccc(F)cc3s2)c1 14.1 µM [activator, full curve]
Cc1ccc(/C=C/C(=O)NC2CCCCCCC2)o1 11.2 µM [activator, single point]
CN1c2ccccc2C(C)(C)[C@]12C=Cc1cc(O)ccc1O2 50.1 µM [activator, single point]
C=CC[C@H](CC(=O)OC(C)(C)C)C(=O)OC[C@@H]1CCCN1C(=O)[C@@H](CC=C)CC(=O)NCCO 15.8 µM [activator, single point]
CN1C(=O)/C(=C\c2cc(Br)cs2)c2ccccc21 11.2 µM [activator, partial curve, poor fit]
COc1ccc(C(=O)C2CCCN(C(=O)C3=CCCC3)C2)cc1OC (stereo unspecified) 28.2 µM [activator, single point]
Cc1ccc(-c2cc(C(=O)N3N=C(C(F)F)CC3(O)C(F)F)c3ccccc3n2)cc1C (stereo unspecified) 15.8 µM [activator, single point]
CC(=O)c1ccc(NC(=S)NC(NC(=O)c2ccco2)C(Cl)(Cl)Cl)cc1 (stereo unspecified) 11.2 µM [activator, full curve, poor fit]
CCN1CCCC1CNC(=O)c1cc2c(-c3ccc(Cl)cc3)nn(C)c2s1 (stereo unspecified) 50.1 µM [activator, single point]
CC(C)(C)OC(=O)[C@H](Cc1ccccc1)NC(=O)c1[nH]cnc1C(=O)Nc1ccc(Cl)cc1 12.6 µM [activator, single point]
COc1ccccc1C(=O)Nc1ccc(Br)cc1C 10 µM [activator, partial curve, poor fit]
CCOc1ccc(NC(=O)CN(c2ccc(OC)cc2)S(C)(=O)=O)cc1 11.2 µM [activator, single point]
COc1ccccc1C(CNC(=O)c1cccc(S(=O)(=O)NCc2ccccc2)c1)N(C)C (stereo unspecified) 28.2 µM [activator, single point]
COC(=O)[C@@H]1CCCN1C(=O)c1cnn(-c2ncc3c(n2)-c2ccccc2CCC3)c1C1CC1 10 µM [activator, partial curve, poor fit]
Cc1ccc(C(CC(=O)c2ccco2)SCCO)cc1 (stereo unspecified) 10 µM [activator, partial curve, poor fit]
O=C(N/N=C/c1ccncc1)c1cc2ccccc2cc1O 50.1 µM [activator, single point]
O=C(NCc1ccccc1Cl)C1CCCN(S(=O)(=O)c2cccc3nsnc23)C1 (stereo unspecified) 3.16 µM [activator, single point]
COc1ccc(CC(=O)N/N=C(\C)c2cccs2)cc1 2.24 µM [activator, partial curve, poor fit]
O=c1[nH]c(CSc2nnc(-c3ccccc3)n2C2CCCCC2)nc2ccccc12 2.82 µM [activator, single point]
O=c1cc(-c2ccccc2Cl)oc2c(NS(=O)(=O)c3cc(Cl)cc(Cl)c3O)ccc(O)c12 50.1 µM [activator, single point]
COc1ccc(-c2ccoc2)cc1[C@H]1[C@H]2C=CC[C@@H](C)[C@@H]2C(=O)N1Cc1ccccc1 50.1 µM [activator, single point]
COCCn1c(SCC(=O)N(C)C2CCS(=O)(=O)C2)nc2ccccc2c1=O (stereo unspecified) 50.1 µM [activator, single point]
C/C(=N\NC(=O)c1ccccc1)c1ccccc1Br 10 µM [activator, partial curve, poor fit]
CCOc1ccc(S(=O)(=O)Nc2ccc3oc(C)c(C(=O)OC(C)C)c3c2)cc1 44.7 µM [activator, single point]
COc1ccc(/C=C/C(=O)c2cc(O)ccc2O)cc1 15.8 µM [activator, partial curve, poor fit]
CCOc1ccc(-c2c(=O)n(OCc3nc4ccccc4[nH]3)c3ccccc3[n+]2[O-])cc1 11.2 µM [activator, single point]
CCN(CC)c1ccc(/C=N/NC(=O)Nc2ccccc2)cc1 10 µM [activator, full curve, poor fit]
COc1ccc(-c2nnc(SCC(=O)OC3CCCCC3)o2)cc1OC 35.5 µM [activator, partial curve, poor fit]
CCN(CC)CCNC(=O)COc1ccc(OC)cc1 28.2 µM [activator, single point]
Cc1cc(=O)c2c(O)c(O)ccc2o1 50.1 µM [activator, single point]
CC1(C)NC(=O)N(CCOc2cccc(Oc3ccccc3)c2)C1=O 31.6 µM [activator, single point]
O=C(CS(=O)(=O)c1ccccc1)c1cc2cc(F)ccc2oc1=O 44.7 µM [activator, single point]
O=C(CCl)NN1C(=O)NC(c2ccccc2)(c2ccccc2)C1=O 50.1 µM [activator, single point]
